# Reference: PubChem BioAssay AID686970 (National Center for Advancing Translational Sciences (NCATS), 2013)
# About 6,000 (1.7%) of roughly 360,000 compounds were called active. The shares of active, inactive and inconclusive entries below differ from those in the screen. Calls come from the whole dose curve; as a rule, active = well fitted cell-killing curve with a large enough effect; inconclusive = small, poorly fitted or top-dose-only effect, or effect the other way; inactive = flat fitted curve, though single readings scatter. No potency is given beside an inconclusive call; the fits are too rough.
# Test: qHTS for induction of synthetic lethality in tumor cells producing 2HG: qHTS for the HT-1080-NT fibrosarcoma cell line;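 note: NT is the 2HG producing partner of a matched IDH1 knockdown line; nearly all actives have a fitted effect of over 55% in size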;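 for activity, negative = less viability: 0% = DMSO-treated cells and -100% = media-only wells without cells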
# Settings: HT-1080-NT fibrosarcoma viability, CellTiter-Glo ATP luminescence, 48 h; activity, negative = less viability: at 46.1 µM (top of the series) unless noted
# Method in brief: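 Compounds were tested in concentration-response format on HT-1080-NT cells for 48 hours at 37 degrees C. Cell viability came from CellTiter-Glo luminescence; curves were classified by r2, response magnitude and activity.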
# Potency is the fitted concentration of half-maximal effect; tags give direction and shape of the fitted curve.
SMILES,Potency,"activity, negative = less viability"
O=C(O)CCN1C(=O)c2ccc(NC(=O)Cc3ccc(Cl)cc3)cc2C1=O,inactive,
CSc1ccc(/C=N\NC(=O)CNc2ccc(C)cc2)cc1,"inconclusive [cytotoxic, single point]",
CCC(=O)Nc1ccc(NC(=S)NC(=O)c2oc3ccccc3c2C)cc1,"inconclusive [rising, partial curve, poor fit]",
CCN(C(=O)CSc1nnc(-c2ccco2)n1CC)c1c(N)n(Cc2ccccc2)c(=O)[nH]c1=O,inactive,
CN(C)c1ncnc2c1ncn2[C@H]1CN(CCN2CCOCC2)C[C@@H](CO)O1,"inconclusive [rising, single point]",
O=C(O)c1ccc(C(=O)c2ccc3c(c2)C(=O)N(CCO)C3=O)cc1,,inconclusive: 33.5%
C[N+](C)(C)CCC(=O)N1C/C(=C/c2ccccc2)C(=O)/C(=C\c2ccccc2)C1,"inconclusive [cytotoxic, partial curve]",
CN/C(=C/[N+](=O)[O-])NCCSCc1ccc(CN(C)C)o1,"inconclusive [rising, single point]",
COc1ccc(C2c3ccc4ccccc4c3Oc3ncn(CCCN(C)C)c(=N)c32)cc1 (centres undefined),active: 18.4 µM,
CC(NC(=O)c1ccc2c(c1)OCO2)c1ccccc1 (centres undefined),"inconclusive [rising, partial curve]",
Cn1c(NCc2ccncc2)nc2cc(-c3ccsc3)sc2c1=O,inactive,
C=CCn1c[n+](CC(=O)c2ccc(Br)s2)c2ccccc21,inactive,
CC(C)(C)c1ccc(-c2cc(-c3ccccc3O)[nH]n2)cc1,"inconclusive [cytotoxic, single point]",
OCCSc1nc(-c2cccnc2)nc2ccccc12,"inconclusive [cytotoxic, partial curve]",
O=C(c1ccc(Cl)c(S(=O)(=O)NCc2ccccc2)c1)N1CCN(c2ccccn2)CC1,"inconclusive [cytotoxic, single point]",
CCCN(CC(=O)Nc1ccccc1C)C(=O)c1ccc(S(=O)(=O)N2CCC(C)CC2)cc1,inactive,
Cc1cc(C(=O)N/N=C/c2ccc([N+](=O)[O-])s2)c2ccccc2n1,"inconclusive [cytotoxic, partial curve]",
O=C(CCCN1CC=C(n2c(=O)[nH]c3ccccc32)CC1)c1ccc(F)cc1,,inconclusive: -30.4% [cytotoxic]
CCCCCc1ccc(OCCCC[n+]2ccc(C)cc2)c(CCCCC)c1,active: 6.51 µM,
CN1CCN(c2ccc(-c3cc(NC=O)c4ncc(-c5ccc(F)c(Cl)c5)n4c3)cc2)CC1,"inconclusive [cytotoxic, single point]",
CC(/C=N/N1CCN(c2ccccc2)CC1)=C\c1ccco1,"inconclusive [cytotoxic, single point]",
CCn1c(CNc2ccc(C)cc2)nnc1SCC(=O)NCc1ccccc1,"inconclusive [cytotoxic, single point]",

SMILES,Potency,"activity, negative = less viability"
Cc1ccc(NC(=O)C(C)c2ccc([N+](=O)[O-])cc2)cc1Cl (centres undefined),"inconclusive [cytotoxic, single point]",
COc1cc(NC(=S)NC(=O)c2ccc(C(C)(C)C)cc2)ccc1NC(=O)c1cccs1,"inconclusive [cytotoxic, full curve, poor fit]",
COC(=O)[C@@]1(Cc2ccc(F)cc2)[C@H]2c3cc(C(=O)N4CCCC4)n(CCSCCO)c3C[C@H]2CN1C(=O)c1ccccc1,"inconclusive [cytotoxic, single point]",
O=[N+]([O-])c1ccc(Oc2cccc3cccnc23)c([N+](=O)[O-])c1,"inconclusive [cytotoxic, single point]",
COc1ccccc1-c1cc(C(F)(F)F)nc(S(=O)(=O)CCCC(=O)N2CCCCC2C)n1 (centres undefined),"inconclusive [cytotoxic, single point]",
Cc1cc(C)n2nc(SCC(=O)c3cc(C)n(-c4cc(C)on4)c3C)nc2n1,"inconclusive [cytotoxic, single point]",
CCCC(=O)N1CCCC(c2cc(C(=O)Nc3ccccc3)no2)C1 (centres undefined),"inconclusive [cytotoxic, partial curve]",
CCSc1nnc(NC(=O)C2CC2c2ccccc2)s1 (centres undefined),"inconclusive [cytotoxic, single point]",
Cc1ccccc1CSc1ccc(S(=O)(=O)N2CCCC2)cn1,inactive,
C=CS(=O)(=O)c1sc(Cl)c(N2CCOCC2)c1[N+](=O)[O-],"inconclusive [cytotoxic, single point]",
Cc1ccc(-c2csc(NC(=O)CCNC(=O)c3ccco3)n2)cc1,inactive,
COc1ccc(NS(=O)(=O)c2cn(C)nc2C)cc1,inactive,
Cc1nc(N)ncc1-c1ccc2c(c1)OCO2,inactive,
Cc1ccc(C(C(=O)NC2CCCCC2)N(C(=O)Cc2c[nH]c3ccccc23)c2ccccc2C)o1 (centres undefined),active: 14.6 µM,
O=c1cc(CN2CCN(Cc3ccccc3)CC2)c2ccc(O)c(O)c2o1,"inconclusive [cytotoxic, single point]",
O=C1/C(=C/c2ccccc2)NC(=S)N1C(c1ccccc1)c1ccccc1,"inconclusive [cytotoxic, partial curve]",
CC(C)(C)NC(=O)c1cccc(NC(=O)c2ccc3c(c2)C(=O)N(C(C)(C)C)C3=O)c1,"inconclusive [cytotoxic, single point]",
COc1cc(C(=O)NCC2CCCO2)ccc1OCc1ccccc1Cl (centres undefined),inactive,
Cc1ccccc1C(=O)Nc1nnc(-c2ccc(F)cc2)o1,,inconclusive: -31.6% [cytotoxic]
Cc1cc(N2CCCC2)c(F)cc1/C=C\[N+](=O)[O-],"inconclusive [cytotoxic, partial curve]",
Cc1ccc(S(=O)(=O)N2CCOCC2)cc1NC(=O)CSc1nc2ccccc2c(=O)n1Cc1ccccc1,inactive,
COc1ccc(S(=O)(=O)N(CC(=O)NCC2CCCO2)Cc2ccccc2)cc1C (centres undefined),inactive,
